# Experimental data: PMC4336329 (PLoS ONE, 2015)
# The whole screen tested about 310,000 compounds, of which about 14,000 (4.5%) showed an effect of 50% or more. The effect is printed as a negative number. Some of the results follow.
# Target: human ether-à-go-go-related gene (hERG) potassium channel (human, UniProt Q12809)
# Assay: primary screen, population patch clamp on CHO cells stably expressing hERG
# 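Note: peak tail current of the secondary pulse compared with the same well before compound.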
# Sequence of human ether-à-go-go-related gene (hERG) potassium channel (Q12809 whole entry, looked up): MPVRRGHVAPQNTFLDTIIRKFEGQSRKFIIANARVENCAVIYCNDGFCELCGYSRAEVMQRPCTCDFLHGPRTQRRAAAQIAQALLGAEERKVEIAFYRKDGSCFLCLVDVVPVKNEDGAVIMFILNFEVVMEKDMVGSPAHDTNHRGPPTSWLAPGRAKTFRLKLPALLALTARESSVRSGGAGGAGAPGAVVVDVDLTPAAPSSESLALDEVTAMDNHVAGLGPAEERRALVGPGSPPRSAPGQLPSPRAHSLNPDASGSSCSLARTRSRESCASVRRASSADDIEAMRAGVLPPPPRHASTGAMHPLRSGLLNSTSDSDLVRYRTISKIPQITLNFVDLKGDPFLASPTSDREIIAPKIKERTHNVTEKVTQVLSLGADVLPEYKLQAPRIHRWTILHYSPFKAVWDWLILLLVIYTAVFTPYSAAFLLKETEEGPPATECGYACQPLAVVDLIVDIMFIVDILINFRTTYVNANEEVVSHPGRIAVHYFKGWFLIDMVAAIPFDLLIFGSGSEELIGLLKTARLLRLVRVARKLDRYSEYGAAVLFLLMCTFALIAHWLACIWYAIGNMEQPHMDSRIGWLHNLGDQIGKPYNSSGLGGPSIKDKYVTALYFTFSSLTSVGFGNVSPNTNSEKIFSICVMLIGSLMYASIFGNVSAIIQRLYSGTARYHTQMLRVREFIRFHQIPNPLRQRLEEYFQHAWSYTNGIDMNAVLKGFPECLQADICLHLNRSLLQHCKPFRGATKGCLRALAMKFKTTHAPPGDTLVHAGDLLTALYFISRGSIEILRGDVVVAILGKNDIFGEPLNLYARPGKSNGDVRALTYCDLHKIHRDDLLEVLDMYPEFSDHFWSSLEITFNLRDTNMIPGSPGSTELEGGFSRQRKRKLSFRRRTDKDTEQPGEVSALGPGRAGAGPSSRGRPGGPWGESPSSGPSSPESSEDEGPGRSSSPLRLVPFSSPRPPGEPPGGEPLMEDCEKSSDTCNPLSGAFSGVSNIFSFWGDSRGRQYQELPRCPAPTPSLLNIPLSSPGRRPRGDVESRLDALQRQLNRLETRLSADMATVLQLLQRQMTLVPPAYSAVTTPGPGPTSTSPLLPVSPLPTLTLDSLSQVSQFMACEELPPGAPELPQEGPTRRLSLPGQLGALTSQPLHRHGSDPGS
row,SMILES,"hERG current change (%, negative = inhibition) at 10uM"
1,CC(=O)c1sc(NC(=O)c2ccccc2F)nc1C,-9.34%
2,CCOC(=O)CNc1c(-c2ccc(OC)cc2)nc2ccc(Cl)cn12,-73.5%
3,CCOC(=O)c1sc(NC(=O)c2ccc(CC)s2)nc1C,-1.03%
4,CN1CCN(S(=O)(=O)c2ccc(CNC(=O)c3ccccc3)s2)CC1,23.1%
5,C/C(=C\C(=O)c1ccccc1)NNC(=O)c1ccc(Cl)cc1,6.68%
6,CC(C)(C)N(Cc1ccccc1)C(=O)c1ccc(Cl)cc1[N+](=O)[O-],16.1%
7,O=C(OCCCCN1C(=O)c2ccccc2C1=O)c1ccc(Br)o1,-0.77%
8,Oc1ccc(Cc2ccc(Cl)cc2)c(O)c1,16.7%
9,N#Cc1cc([N+](=O)[O-])ccc1NCCN1CCOCC1,-41%
10,Cc1sc2ncnc(N3CCN(Cc4ccccc4)CC3)c2c1-c1ccccc1,-34.8%
11,CCC1(c2ccc(F)cc2)NC(=O)N(CC(=O)Nc2ccc(S(N)(=O)=O)cc2)C1=O (stereo not drawn),18.5%
12,O=c1c2ccccc2nc(/C=C/c2ccc3c(c2)OCO3)n1-c1cccc(O)c1,-7.38%
13,C[N+](C)(C)Cc1ccccc1.[Cl-],16.3%
14,CCOc1ccc(-n2c(=O)c3c(C)c(C)sc3n(CC(=O)NCc3ccco3)c2=O)cc1,3.17%
15,CCOc1nc(SCCOc2ccc(Cl)cc2Cl)nc(N(C)C)n1,4.71%
16,Cc1nn(C(C)C(=O)NCCCN2CCCC2)c(=O)c2nn(-c3ccccc3)c(C)c12 (stereo not drawn),13.1%
17,CCN1C(=O)c2c(C)nc3ccccc3c2C1=O,-2.96%
18,O=C(O)c1ccccc1Nc1ccnc(Cl)n1,8.46%
19,Cl.NOCC(=O)O,1.9%
20,Oc1c(Br)cc(Br)cc1C=NCc1ccccc1,2.98%

row,SMILES,"hERG current change (%, negative = inhibition) at 10uM"
1,CCCCN1CCc2c([nH]c3ccc(C)cc23)C1=O,12.7%
2,CC(C)CN1CCN(Cc2cccn2-c2ccccn2)CC1CCO (stereo not drawn),-55.9%
3,COC(=O)c1ccccc1NC(=O)Cc1ccccc1OC,-19%
4,O=C(CC1C(=O)NCCN1Cc1ccc(-c2ccccc2)cc1)NCC1CC1 (stereo not drawn),-25.1%
5,Cc1c(C(=O)NCC2CCCO2)oc2ccc(S(=O)(=O)N3CCCC3)cc12 (stereo not drawn),-8.49%
6,Nc1cc(C(=O)O)ccc1Sc1ccccc1C(=O)O,22.2%
7,CCC(C)c1ccc(NC(=O)C2CC3CCC2C3)cc1 (stereo not drawn),-24.1%
8,CCC1(CC)C(=N)N(C)C(=O)NC1=O,23.1%
9,O=C(COc1ccc2ccccc2c1)NC1=NCCS1,12.1%
10,CCOC(=O)C1(Cc2ccccc2C)CCCN(Cc2cn(C)nc2C)C1 (stereo not drawn),2.42%
11,O=c1[nH]c(=O)n(C2CCCCCC2)c(O)c1C=NCCCN1CCOCC1,-0.344%
12,O=C(c1cc2ccccc2oc1=O)N1CCN(C(=O)C2CCCO2)CC1 (stereo not drawn),-4.1%
13,COC(=O)c1sccc1NC(=O)CC1C(=O)NCCN1C(=O)Nc1ccc(F)cc1F (stereo not drawn),11.8%
14,COc1ccccc1Cn1c(=S)[nH]c2cc(C(=O)NC(C)C)ccc2c1=O,10.5%
15,CCn1c(CNc2ccc(C(=O)O)cc2)nc2ccccc21,-18.4%
16,CCn1nnc(NC(=O)c2cccnc2)n1,13.5%
17,CC(=O)c1cccc(N(CC(=O)Nc2ccc(S(=O)(=O)N3CCOCC3)cc2)S(C)(=O)=O)c1,8.48%
18,O=C(c1cnn2c(C(F)F)cc(C3CC3)nc12)N1CCc2ccccc2C1,-38.3%
19,N=C1SCC(=O)N1Cc1ccccc1,17.2%
20,O=C(CC1Oc2ccccc2NC1=O)NCCCN1CCOCC1 (stereo not drawn),-7.94%

row,SMILES,"hERG current change (%, negative = inhibition) at 10uM"
1,O=C(Cc1ccc(-n2cnnn2)cc1)NC12CC3CC(CC(C3)C1)C2,-36.7%
2,COc1ccc(Nc2cc(C(=O)NCc3ccco3)c3ccccc3n2)c(OC)c1,5.29%
3,COc1ccc2cc(C(=O)C3CCCN(C(=O)Cc4c(C)noc4C)C3)ccc2c1 (stereo not drawn),-68.5%
4,O=C(CSc1ccccc1)Nc1ccc(S(=O)(=O)NCC2CCCO2)cc1 (stereo not drawn),10.4%
5,Cc1ccc(NC(=O)c2sc(N)nc2-c2ccccc2)cc1C,-2.56%
6,C=CCOc1cccc(C2C(C(=O)c3ccc(C)o3)=C(O)C(=O)N2c2nccs2)c1 (stereo not drawn),7.99%
7,COc1ccc(CNC(=O)c2ccc(Cn3nc(C)cc3C)o2)cc1,13.5%
8,CCCCN(C(=O)c1cnc(C)cn1)c1c(N)n(CCC)c(=O)[nH]c1=O,5.11%
9,O=C(CCc1nnc(Cc2cccc(C(F)(F)F)c2)o1)NC1CC1,32.2%
10,COc1ccccc1CNC(=O)CCCNC(=O)Cn1cnc2sc(C)c(C)c2c1=O,17.3%
11,CCCc1nc2ccccc2c(=O)n1-c1ccc(C(=O)OCC)cc1,13.5%
12,O=C(Nc1ccccc1C(=O)N1CCOCC1)c1noc2c1CCCC2,0.607%
13,COc1ccccc1CCNC(=O)c1csc2c1CCCC2,14%
14,COc1cccc(-n2c(C)n[nH]c2=O)c1,14.1%
15,CN1N=C(/C=C/c2ccccc2)CCC1=O,9.97%
16,Cc1c(C)n(-c2ccc(Cl)cc2)c2ncnc(N)c12,0.714%
17,N#Cc1c(-c2ccccc2)cc(-c2ccccc2)nc1SCC(=O)NCC(=O)O,-1.33%
18,Cc1ccsc1S(=O)(=O)N1CCC(CO)(CC2CCCCO2)CC1 (stereo not drawn),3.2%
19,CCOC(=O)N1CCN(C(=O)C2CCCN(S(=O)(=O)c3ccc(C)cc3)C2)CC1 (stereo not drawn),-24.4%
20,O=C1C(=Cc2ccco2)C(=O)c2ccccc21,8.17%
